From patent US20240376204A1 (JIANGSU HENGRUI PHARMACEUTICALS, published 2024) come the findings set out here.

Substitutions are numbered along the chain they refer to. Numbers in names are those of the source. Read-outs that look alike come from different tables or passages of the source.

The target in experiment [1] is T1, human PD-1 expressed on cells (human, UniProt Q15116 25-288). The experiment can be described thus: cell-based or functional assay.
Experiment [2] deals with T2, human PD-1 antigen protein (Sino Biological, 10377-H08H) (human, UniProt Q15116 in part).
T2 construct: Bought construct
The experiment can be described thus: SPR (Biacore 8K), antibody captured by anti-human Fc, PD-1 as analyte. (In general: Surface plasmon resonance follows binding to a sensor surface in real time, without labels.)

Experiment [3] concerns the target T3, cynomolgus monkey PD-1 antigen protein (Sino Biological, 90311-C08H) (cynomolgus monkey, UniProt B0LAJ3 25-170).
T3 construct: not shown: The tag of the vendor's product (Sino Biological 90311-C08H, probably a C-terminal poly-His)
T3 sequence (B0LAJ3 entry or part of it C08H C08H limits assumed): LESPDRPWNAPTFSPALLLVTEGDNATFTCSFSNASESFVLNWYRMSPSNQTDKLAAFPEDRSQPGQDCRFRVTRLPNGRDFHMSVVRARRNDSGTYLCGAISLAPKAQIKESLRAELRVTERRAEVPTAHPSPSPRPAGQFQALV
The description is as above.

Experiment [4] concerns the target T1, human PD-1 expressed on cells. The experiment can be described thus: cell-based or functional assay. The source holds these as a separate data set.
For experiment [5] the target is unchanged. The experiment can be described thus: cell-based or functional assay. The source holds these as a separate data set.
Experiment [6] concerns the target T4, Human PD-1 protein (His Tag) (human, UniProt Q15116 in part).
T4 construct: also called human PD-1 (his tag); His-tagged human PD-1; not shown: His tag
The experiment can be described thus: ELISA, plate coated with human PD-1 (his tag). As for the experimental part: The plate was coated with the antigen overnight at 4° C. […] PBST/1% BSA solution was added, and the plate was incubated at 37° C. for 1 h for blocking. […] The plate was washed with PBST solution three times. […] After three washes with PBST solution, TMB solution was added at 100 μL/well. After 5 min of reaction at room temperature, 50 μL of stop solution was added.
On the technique in general: ELISA stands for enzyme-linked immunosorbent assay.

Experiment [7] concerns the target T1, human PD-1 expressed on cells. The experiment can be described thus: cell-based or functional assay. This is another data set of the same source.
For experiment [8] the target is unchanged. The experiment can be described thus: FACS, Jurkat cells overexpressing human PD-1. On the technique in general: In flow cytometry, cells or beads pass a laser one at a time.
The target in experiment [9] is T5, human PVRIG expressed on cells (human, UniProt Q6DKI7 41-326).
T5 sequence (looked up): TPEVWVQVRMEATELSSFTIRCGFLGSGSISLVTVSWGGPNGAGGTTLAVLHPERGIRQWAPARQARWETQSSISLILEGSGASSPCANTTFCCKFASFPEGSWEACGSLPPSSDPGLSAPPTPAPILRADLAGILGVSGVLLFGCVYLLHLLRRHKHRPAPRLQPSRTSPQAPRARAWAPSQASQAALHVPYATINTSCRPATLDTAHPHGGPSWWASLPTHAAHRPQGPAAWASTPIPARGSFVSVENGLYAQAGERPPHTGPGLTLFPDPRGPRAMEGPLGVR
The experiment can be described thus: cell-based or functional assay.

In experiment [10] the target is T5, human PVRIG expressed on cells. The experiment can be described thus: cell-based or functional assay. The source holds these as a separate data set.

T1 sequence (Q15116 25-288 limits assumed): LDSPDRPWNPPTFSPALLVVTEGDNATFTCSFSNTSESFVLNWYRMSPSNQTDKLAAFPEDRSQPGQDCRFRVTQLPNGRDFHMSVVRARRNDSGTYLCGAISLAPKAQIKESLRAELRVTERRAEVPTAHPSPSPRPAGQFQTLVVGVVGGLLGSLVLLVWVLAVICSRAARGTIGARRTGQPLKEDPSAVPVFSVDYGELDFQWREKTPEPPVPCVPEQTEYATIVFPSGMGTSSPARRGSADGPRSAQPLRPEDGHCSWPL

B1: A17m09_hIgG4 (Fc fusion)
chain: EVQLQESGGGLVQPGGSLRLSCTASGLTFSDYSMSWYRQAPGKGRELVAIISGSGVITHYVDSVKGRFTISRDNAKNTVYLQMRSLTPEDRAVYYCRAVSDWEDYWGQGTQVTVSS[gap - human IgG4 Fc with S228P (EU numbers)]
As usually defined, the Kd is a measure of binding affinity in units of concentration. By koff is commonly meant the rate constant with which the complex falls apart. What is called kon is the rate constant with which the complex forms. As for B1, the “IC50, PD-1/PD-L1 NFAT reporter gene system” value in [1] is 1.08 nM; in experiment [5] it was 0.772 nM. In addition, the Kd is 3.56 nM in experiment [2] and 1.75 nM in [3]. Besides, the koff came to 0.00163 s⁻¹ in [2] and 0.000843 s⁻¹ in [3]. Also, the figures for the kon in experiment [2] and in [3] were 458000 M⁻¹ s⁻¹ and 481000 M⁻¹ s⁻¹, respectively. In experiment [4], the “EC50, IFN-γ in DC:T mix lymphocyte reaction” value worked out at 0.293 nM.

B2: A17m0905_hIgG4 (Fc fusion)
chain: B1 chain with Q5V, T23A, T87R, P88A
Regarding B2, in experiment [1], the “IC50, PD-1/PD-L1 NFAT reporter gene system” value is 0.559 nM.

B3: A17m0903_hIgG4 (Fc fusion)
chain: B1 chain with Q5V, T23A, T87R, P88A, R91T
Take B3: the “IC50, PD-1/PD-L1 NFAT reporter gene system” value in experiment [1] turned out to be 1.28 nM.

B4: A17_hIgG4 (Fc fusion)
chain: B1 chain with L4V, Q5V, T23V, G44E, T58A, N77S, R84V, T87K, A92G, E103D
notes: VHH-Fc antibody, human IgG4 Fc with hinge and S228P; also called A17_IgG4
Broadly, the EC50 is the concentration at which the effect is half-maximal. On to B4, for which the EC50 was 0.061 nM in experiment [6] and 0.357 nM in experiment [8]. Also, the “IC50, PD-1/PD-L1 NFAT reporter gene system” value in experiment [7] was 1.2 nM.

B5: A17m0901_hIgG4 (Fc fusion)
chain: B1 chain with Q5V, T23A, L27F, V79L, T87R, P88A, R91T
For B5, in experiment [1], the “IC50, PD-1/PD-L1 NFAT reporter gene system” value worked out at 0.531 nM. In [2], this molecule registered a Kd of 6.44 nM, a koff of 0.00192 s⁻¹ and a kon of 297000 M⁻¹ s⁻¹. In experiment [3], this molecule came in with a Kd of 3.32 nM, a koff of 0.00113 s⁻¹ and a kon of 340000 M⁻¹ s⁻¹.

B6: A17h1_hIgG4 (Fc fusion)
chain: B1 chain with T58A, A75S, E103D
notes: also called A17h1_IgG4
Take B6: in experiment [1], the “IC50, PD-1/PD-L1 NFAT reporter gene system” value was determined as 1.04 nM. In [2], the Kd was found to be 2.02 nM, the koff is 0.000868 s⁻¹ and the kon stood at 430000 M⁻¹ s⁻¹. Further, in [3], the Kd turned out to be 1.82 nM, the koff came out at 0.000807 s⁻¹ and the kon turned out to be 444000 M⁻¹ s⁻¹. Also, the “IC50, PD-1/PD-L1 NFAT reporter gene system” value in [5] amounted to 0.696 nM.

B7: A17m0902_hIgG4 (Fc fusion)
chain: B1 chain with Q5V, T23A, V79L, T87R, P88A, R91T
With B7, the “IC50, PD-1/PD-L1 NFAT reporter gene system” value in experiment [1] came to 0.435 nM. In experiment [2], this molecule yielded a Kd of 6.09 nM, a koff of 0.00177 s⁻¹ and a kon of 291000 M⁻¹ s⁻¹. Moreover, in [3], the Kd worked out at 3.28 nM, the koff is 0.00108 s⁻¹ and the association rate constant (kon) worked out at 328000 M⁻¹ s⁻¹.

B8: A6_hIgG4 (Fc fusion)
chain: EVQLVESGGGLVQAGGSLRLSCAVSGRTFSSAAMGWFRQAPGKEREFVAAISWSFGSTYYADSVKGRFTISRDNAKNTVYLQMNSLKPEDTAVYYCAADPSIETMGGGWDYWGQGTQVTVSS[gap - human IgG4 Fc with S228P (EU numbers)]
notes: VHH-Fc antibody, human IgG4 Fc with hinge and S228P; also called A6_IgG4
Take B8: the results for the EC50 in experiment [6] and in experiment [8] were 0.0861 nM and 1.09 nM, respectively. Besides, the “IC50, PD-1/PD-L1 NFAT reporter gene system” value in experiment [7] is 1.35 nM.

B9: anti-PVRIG nanobody 151 (full length) (Fc fusion)
chain: HVQLVESGGGSVQAGGSLRLSCVASASGFTYRPYCMAWFRQAPGKEREAVAGIDIFGGTTYADSVKGRFTASRDNAGFSLFLQMNDLKPEDTAMYYCAAGDSPDGRCPPLGQGLNYWGQGTQVTVSS[gap - human IgG4 Fc with S228P F234A L235A (EU numbers)]
With B9, in experiment [9], the “IFNγ, mixed lymphocyte reaction, 4 nM antibody” value came to 1500 pg/mL; the “IFNγ, mixed lymphocyte reaction, 20 nM antibody” value was determined as 2220 pg/mL; the “IFNγ, mixed lymphocyte reaction, 100 nM antibody” value stood at 1800 pg/mL. Besides, in [10], the “PVRIG reporter gene cell activity EC50” value stood at 0.04 nM.

B10: anti-PVRIG nanobody 30 (full length) (Fc fusion)
chain: HVQLVESGGGSVQAGGSLRLSCEASGYSYSGDCMGWFRRAPGKERDEGVATIDNAGRIKYADSVKGRFTISHGNGKYILYLQMNSLKPEDTDMYYCAAGWTFGGNCSPADWGQGTQVTVSS[gap - human IgG4 Fc with S228P F234A L235A (EU numbers)]
For B10, in experiment [9], the “IFNγ, mixed lymphocyte reaction, 4 nM antibody” value is 1680 pg/mL; the “IFNγ, mixed lymphocyte reaction, 20 nM antibody” value came out at 1910 pg/mL; the “IFNγ, mixed lymphocyte reaction, 100 nM antibody” value amounted to 1580 pg/mL. Moreover, in experiment [10], the “PVRIG reporter gene cell activity EC50” value stood at 0.06 nM.
